Patent US20210292393A1 (published 2021)

Molecular target: SARS-CoV-2 spike (S) protein (SARS-CoV-2)

B1: antibody 274 (antibody, V domains shown)
VH: QVQLVESGGGVVQPGRSLRLSCAASGFTFSSYAMHWVRQAPGKGLEWVAVISYDGSNKYYADSVKGRFTISRDNSKNTLYLQMNSLRAEDTAVYYCARDSESDSSGWLHYFDYWGQGTLVTVSS
VL: not shown
Kd: 28.4 nM | koff: 0.000854 s⁻¹ | kon: 30100 M⁻¹ s⁻¹
